{"source": "PubChem BioAssay (NCATS)", "note": "The inconclusive results got no clear call from the source; some entries with a clear call stand among them for comparison. Potencies of inconclusive entries are left out as doubtful fits. Calls of active or inactive are those of the source. The call rests on the fitted dose curve; in most records, active means well fitted inhibition curve with a large enough effect; inconclusive means small, poorly fitted or top-dose-only effect; inactive means flat fitted curve, though single readings scatter. Potency means the concentration at half of the fitted maximal effect; tags describe the fitted curve by direction and shape.", "data": [{"tested_on": "Zika virus NS2B-NS3 protease", "assay": "Primary screen GU AMC qHTS for Zika virus inhibitors (AID 1347154); further: nearly all actives have a fitted effect of over 70% in size;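 on activity change, negative = inhibition: 0% = no-inhibitor control and -100% = no-enzyme control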", "details": "Zika NS2B-NS3 unlinked protease, AMC fluorogenic substrate; series mostly up to 54.1 µM; activity change, negative = inhibition: at the top concentration", "outline": "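Unlinked Zika NS2B hydrophilic domain–NS3 protease complex at 25 nM in 10 mM Tris-HCl pH 8.0, 0.01% Tween 20, with an AMC peptide substrate. Fluorescence change (340/450 nm) over 15 min at room temperature, normalized to controls, fitted to 4-parameter Hill.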", "values": [{"smiles": "C[C@]12CC[C@@H]3c4ccc(OC(=O)N(CCCl)CCCl)cc4CC[C@H]3[C@@H]1CC[C@@H]2OP(=O)(O)O", "Potency": "inconclusive [inhibitor, partial curve]"}, {"smiles": "C[C@H](N)[C@H](O)c1ccc(O)c(O)c1", "Potency": "inconclusive [inhibitor, partial curve]"}, {"smiles": "CN(C)[C@@H]1C(=O)C(C(N)=O)=C(O)[C@@]2(O)C(=O)C3=C(O)c4c(O)cccc4[C@@](C)(O)[C@H]3C[C@@H]12", "Potency": "inconclusive [inhibitor, single point]"}, {"smiles": "O=c1[nH]c2ccccc2n1C1CCN(Cc2ccc(-c3[nH]c4cc5ncnc5cc4nc3-c3ccccc3)cc2)CC1", "Potency": "inconclusive [inhibitor, partial curve, poor fit]"}, {"smiles": "O=S(=O)(O)C(F)(F)C(F)(F)C(F)(F)C(F)(F)C(F)(F)C(F)(F)C(F)(F)C(F)(F)F", "Potency": "active: 11.2 µM"}, {"smiles": "Cc1c(Cl)c(=O)oc2cc(OP(=O)(OCCCl)OCCCl)ccc12", "Potency": "active: 14.4 µM"}, {"smiles": "CC(CCc1ccccc1)NC(C)C(O)c1ccc(O)cc1", "note": "(stereo unspecified)", "activity change, negative = inhibition": "inactive: 0.869%"}, {"smiles": "CCOP(=O)(OCC)C(C)NC(=O)N(CCCl)N=O", "note": "(stereo unspecified)", "activity change, negative = inhibition": "inactive: 12.6%"}, {"smiles": "Nc1ccccc1C(=O)OCC(O)CO", "note": "(stereo unspecified)", "Potency": "active: 16.1 µM"}, {"smiles": "O=C1OC(c2ccc(O)c(S(=O)(=O)O)c2)(c2ccc(O)c(S(=O)(=O)O)c2)c2c(Br)c(Br)c(Br)c(Br)c21", "Potency": "inconclusive [inhibitor, partial curve]"}, {"smiles": "C=CCN1CC[C@]23CCCC[C@H]2[C@H]1Cc1ccc(O)cc13", "activity change, negative = inhibition": "inactive: -0.941%"}]}]}
